# Hit rate of the full screen: of about 43,000 compounds, about 200 (0.47%) were called active. Inconclusive results (about 12%) are left out. Calls come from the whole dose curve; as a rule, active = well fitted cell-killing curve with a large enough effect; inconclusive = small, poorly fitted or top-dose-only effect, or effect the other way; inactive = flat fitted curve, though single readings scatter. The list shows a part of the results.
# Assay: Cell viability qHTS assay in S16 Pmp22-F2sN cells; note: nearly all actives have a fitted effect of over 65% in size
# Conditions: S16 Pmp22-F2sN Schwann cells (luciferase reporters placed in the Pmp22 gene) viability, CellTiter-Glo, 24 h; series mostly up to 57.5 µM; activity change, negative = cytotoxicity: at the top concentration
# Outline: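 Rat S16 Schwann reporter line, 24 h treatment with library compounds delivered at 23 nL per well. Cell viability by CellTiter-Glo luminescence.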
# % is set by controls: 0 for no effect and ±100 for the full control effect.
row,Structure (SMILES),"activity change, negative = cytotoxicity"
1,COCCCNC(=O)CCCCn1c(=O)c2ccccc2n(CC(=O)Nc2ccc(C)cc2C)c1=O,inactive: 1.77%
2,Cn1nc(-c2ccc(C(=O)Nc3ccc(F)cc3)cc2)c2ccccc2c1=O,inactive: -18.4%
3,C=Cc1ccc(Cn2nc(-c3ccc(C)c(S(=O)(=O)N(CC)CC)c3)ccc2=O)cc1,inactive: -20.1%
4,Cc1cccn2c(=O)c3cc(C#N)c(=O)n(-c4nnc(SCc5ccccc5F)s4)c3nc12,inactive: -16.2%
5,Cc1cc(C)c(NC(=O)Cn2c(=O)n(Cc3ccc4c(c3)OCO4)c(=O)c3ccc(C(=O)NC4CCCCC4)cc32)c(C)c1,inactive: 6.54%
6,O=C(NCc1ccccc1F)c1ccc(CN2CC(=O)N3CCCCC3C2=O)cc1 (stereo not given),inactive: 20.3%
7,CCOC(=O)c1sc2cccc(F)c2c1S(=O)(=O)N1CCN(c2cccc(Cl)c2)CC1,inactive: -9.68%
8,CCCn1c2ccccc2c2cnn(CC(=O)N3CCC(C)CC3)c(=O)c21,inactive: 3.06%
9,CCc1ccc(CNC(=O)c2cnc3sc4cc(OC)ccc4n3c2=O)cc1,inactive: 4.35%
10,COc1cccc(C(=O)N2c3cc(C)ccc3C(C)(c3ccccc3)CC2(C)C)c1 (stereo not given),inactive: -4.36%
11,N#C/C(=C\c1ccc(Cl)cc1)c1nc(-c2cc3ccccc3oc2=O)cs1,inactive: -4.99%
12,CCC(C)NC(=O)Cn1ncc2c([nH]c3ccc(C)cc32)c1=O (stereo not given),inactive: 9.53%
13,CCc1cccc(NC(=O)Cn2nc(-c3ccc(OC)cc3)ccc2=O)c1,inactive: -3.23%
14,CCOc1ccccc1NC(=O)Cn1c(=O)n(Cc2ccccc2)c(=O)c2c(C)c(C)sc21,inactive: 5.85%
15,O=C(Nc1nc2n(n1)C(c1ccccc1)C=C(c1ccccc1)N2)c1ccc(Cl)c([N+](=O)[O-])c1 (stereo not given),inactive: -2.35%
16,Cc1cccc(C)c1Nc1sc(C(=O)c2ccccc2)c(N)c1C(=O)Nc1ccc(F)cc1,inactive: -22.3%
17,CC(C)OCCCNC(=O)c1cc2c(-c3ccc(Cl)cc3)nn(C)c2s1,inactive: -8.23%
18,COc1cc(NC(=O)C2CCCN(S(=O)(=O)c3ccc4c(c3)oc(=O)n4C)C2)c(C(=O)O)cc1OC (stereo not given),inactive: 1.81%
19,CCCCC(Sc1nc2cc3c(cc2c(=O)n1CCCC(=O)NCc1ccc(OC)cc1)OCO3)C(=O)OCC (stereo not given),inactive: -1.12%
20,Cc1ccc(NC(=O)c2c(C)oc3ccc(O)c(CN4CCCCCC4)c23)c(C)c1,inactive: -12.5%
21,CCOC(=O)c1[nH]c(C)c(CCC(=O)NCc2ccc(OCC)cc2)c1C,inactive: -12%
22,CCc1cccc(NC(=O)CCS(=O)(=O)c2cc(Br)cc3c2N(C(C)=O)CC3)c1,inactive: 2.76%
23,COc1cc(OC)cc(C(=O)Nc2ccc3c(c2)N(C2CCCC2)C(=O)c2ccccc2S3)c1,inactive: 2.3%
24,O=C(NCc1ccccc1Cl)c1cc2ccccc2o1,inactive: 6%

row,Structure (SMILES),"activity change, negative = cytotoxicity"
1,O=C(CSc1nc2ccccc2nc1Cc1ccccc1)N1CCCCC1,inactive: -17.9%
2,Cc1cc(C)cc(-n2c(SCC(N)=O)nc3c(oc4ccccc43)c2=O)c1,inactive: 3.04%
3,CCOc1ccccc1NC(=O)Cn1cnc2sc(C)c(S(=O)(=O)N3CCC(C)CC3)c2c1=O,inactive: -0.947%
4,COc1cccc(Nc2c3c(nc4nncn24)CCC3)c1,inactive: -2.69%
5,CCc1ccc(C2CC(=O)Nc3c2c(C)nn3-c2nc(C)cc(C)n2)cc1 (stereo not given),inactive: -6.06%
6,CCOc1ccccc1NC(=O)N1CCN(Cc2nc3ccc(C)cc3o2)CC1,inactive: 13.5%
7,Cc1ccc(C)c(N2CCN(S(=O)(=O)c3c(C)nc4sccn4c3=O)CC2)c1,inactive: 4.6%
8,Cc1nc2ccccc2c(=O)n1-c1ccc(NC(=O)c2ccc([N+](=O)[O-])cc2)cc1,inactive: -1.44%
9,COc1ccc(N2CCN(C(=O)CCc3c(C)nc4cc(-c5ccc(Cl)cc5)nn4c3C)CC2)cc1,inactive: -11.2%
10,COc1ccc(-c2[nH]nc3nc(-c4cc(OC)c(OC)c(OC)c4)cc(C(=O)O)c23)cc1,inactive: 5.33%
11,CCC(=O)NCC(c1ccc2c(c1)OCO2)N1CCN(c2ccccc2)CC1 (stereo not given),inactive: 11.3%
12,COc1ccc(C(=O)Nc2nnc(S(=O)(=O)N(C)c3ccc(Cl)cc3)s2)cc1OC,inactive: -0.0829%
13,Cc1ccccc1CNC(=O)C(=O)NCC(c1ccco1)S(=O)(=O)c1ccccc1 (stereo not given),inactive: -2.47%
14,Cc1ccc(CCNC(=O)c2cn(C)c3ccc(S(=O)(=O)N4CCCCC4)cc3c2=O)cc1,inactive: -20.6%
15,CCCS(=O)(=O)N1CCCC(C(=O)NCCCOC)C1 (stereo not given),inactive: 10.2%
16,COCCCNC(=O)CN1C(=O)COc2ccc(S(=O)(=O)N3CCCC3)cc21,inactive: 0.179%
17,Cc1ccc(NC(=O)Cn2c(=O)c3cc(Cl)ccc3n3nncc23)cc1,inactive: -2.09%
18,Cc1n[nH]c(C)c1S(=O)(=O)N(CC(=O)NC(C)c1ccccc1)c1ccc(C(C)C)cc1 (stereo not given),inactive: -2.79%
19,COc1ccc(C(=O)NCCn2cc(SCC(=O)NCCc3ccc(OC)c(OC)c3)c3ccccc32)cc1,inactive: -21.1%
20,COc1cccc(NC(=O)Cn2cnc3c(nc4n3CCCCC4)c2=O)c1,inactive: 0.101%
21,COCCCNc1ncnc2onc(-c3ccc(F)cc3)c12,inactive: -4.54%
22,CS(=O)(=O)N1CCc2cc(C(=O)NCCc3ccccc3)ccc21,inactive: 0.7%
23,Cc1ccc(-c2cc(C(=O)N3CCN(S(=O)(=O)c4ccc(Br)cc4)CC3)[nH]n2)cc1C,inactive: -12.5%
24,CC1=C(c2ccc(C)c(C)c2)S(=O)(=O)N=C1N1CCC(C(=O)NCCc2ccco2)CC1,inactive: -16.7%

row,Structure (SMILES),"activity change, negative = cytotoxicity"
1,COc1cccc(C(=O)Nc2ccccc2C(=O)OCc2cc(=O)n3c(C)csc3n2)c1,inactive: 2.38%
2,COc1ccc(NC(=O)Cn2c(C)cc3ccccc3c2=O)c(OC)c1,inactive: 13.5%
3,Cc1nn(-c2nc(-c3ccc(F)cc3)cc(C(F)(F)F)n2)c(C)c1Br,inactive: -5.63%
4,COC(=O)c1cc(C)nc2c1c(=O)nc(SCc1cccc(C)c1)n2C1CC1,inactive: 12.1%
5,CC1=Nc2cc(C(=O)NC3CCCC3)ccc2Sc2ccc(C)cc21,inactive: 1.9%
6,COc1ccccc1OCC(=O)N(Cc1ccc(Cl)cc1)CC1CCCO1 (stereo not given),inactive: 0.17%
7,CCc1cccc(CC)c1NC(=O)c1ccc2c(c1)CCN2S(=O)(=O)c1ccccc1,inactive: -1.73%
8,CC(=O)c1ccc(NC(=O)CC2Nc3cccc4cccc(c34)NC2=O)cc1 (stereo not given),inactive: 1.06%
9,Cc1cccc(NC(=O)CN2C(=O)c3cccnc3Oc3ccc(Cl)cc32)c1C,inactive: -0.0463%
10,CSc1ccc(CCNC(=O)CCCn2nc(C)c3sc4ccccc4c3c2=O)cc1,inactive: 3.87%
11,CCOc1ccc(CNC(=O)CCS(=O)(=O)c2cc3c(cc2Cl)NC(=O)CO3)cc1OC,inactive: 2.48%
12,CCOC(=O)c1ccccc1NC(=O)Nc1cc2c(cc1N1CCCCC1)n(C)c(=O)n2C,inactive: 3.47%
13,Cc1nn(-c2ccc(F)cc2)c(-n2cccc2)c1C(=O)NCCCN1CCN(c2ccccc2F)CC1,inactive: -4.42%
14,COc1cccc(NC(=O)CCc2c(C)nc3c4cccnc4nn3c2C)c1,inactive: -3.02%
15,O=C(Nc1ccc(N2CCC(c3ccccc3)C2)c(C(=O)O)c1)c1ccc(Cl)cc1 (stereo not given),inactive: -2.49%
16,CCOc1ccc(Oc2nc(NCC(C)C)nc(NC(C)(C)C)n2)nn1,inactive: -4.72%
17,COc1ccc(NC(=O)C(=O)NCCc2ccc(OC)c(OC)c2)c(OC)c1,inactive: 7.78%
18,COc1ccccc1CNc1nc2ccccc2c2nc(-c3cccnc3)nn12,inactive: 19.2%
19,COc1ccc(CNC(=O)C2CCN(C(=O)c3ccc(-n4ccc5ccccc54)s3)CC2)cc1,inactive: -5.78%
20,COc1ccc(CCNC(=O)c2cccc(-n3c(C)nc4cccnc43)c2)cc1OC,inactive: 2.81%
21,COc1ccc(-c2cc3nc(-c4ccc(Br)cc4)cc(C(F)(F)F)n3n2)cc1,inactive: 5.61%
22,COCCCNC(=O)c1cnn(-c2ccccc2Cl)c1C1CCN(C(=O)OC(C)(C)C)CC1,inactive: -8.26%
23,Cc1ccccc1OCC(=O)Nc1ccc2nc(SCC(=O)N(C)c3ccccc3)sc2c1,inactive: -0.837%
24,CC(C)(C)OC(=O)N1CCC(c2c(C(=O)N3CCN(c4ccc(Cl)cc4)CC3)cnn2-c2ccc(F)cc2F)CC1,inactive: -17.3%

row,Structure (SMILES),"activity change, negative = cytotoxicity"
1,COc1cccc(NC(=O)C2CCCN(c3nnc(-n4c(C)ccc4C)s3)C2)c1 (stereo not given),inactive: -10.7%
2,COCCCn1c(=N)c(S(=O)(=O)c2ccccc2)cc2c(=O)n3cc(C)ccc3nc21,inactive: 22.8%
3,COc1ccccc1CNC(=O)CCCn1nc(C)c2sc3ccccc3c2c1=O,inactive: 13.8%
4,CCc1ccc(NC(=O)CSc2c(C)cnc3c2c(=O)n(C)c(=O)n3C)cc1,inactive: 8.43%
5,Cc1nc2sccn2c(=O)c1S(=O)(=O)NCc1ccc(F)cc1,inactive: -8.61%
6,Cn1c(=O)c2nc(SCC(=O)Nc3cc(Cl)cc(Cl)c3)n(C)c2n(C)c1=O,inactive: -1.44%
7,Cc1ccc(Cn2c(CNS(=O)(=O)c3ccc(C(C)(C)C)cc3)nc3cccnc32)cc1,inactive: -11.7%
8,O=C(c1cc(-c2ccc(Cl)cc2)on1)N(Cc1cccc(F)c1)Cc1ccco1,inactive: 2.75%
9,COc1ccc(CNc2nc(-c3ccco3)nn2C(=O)c2ccccc2Cl)cc1,inactive: 5.43%
10,COc1cc(NC(=O)c2cc(-c3cccs3)on2)c(OC)cc1Cl,inactive: 12.5%
11,COc1ccc(Cl)cc1NC(=O)c1cc2ccc3ccc(C)[nH]c3c2n1,inactive: 4.16%
12,Cn1cc(S(=O)(=O)c2ccc(Cl)cc2)c(=O)c2cc(F)c(N3CCCC3)cc21,inactive: -2.48%
13,COCCn1c(C)cc(O)c(C(c2ccc(C)cc2)N2CCCCC2)c1=O (stereo not given),inactive: -2.54%
14,CC(=O)N1CCc2cc(Br)cc(S(=O)(=O)N3CCN(c4cc(C)ccc4C)CC3)c21,inactive: 13.8%
15,CC(=O)N1c2ccccc2C(=O)C1N1CCN(c2cccc(C(F)(F)F)c2)CC1 (stereo not given),inactive: 5.81%
16,COc1ccccc1N(CC(=O)Nc1ccc(C)c(Cl)c1)S(=O)(=O)c1ccc(C)cc1,inactive: 18.6%
17,CCOc1ccc(CC(=O)NC2CC(=O)N(c3ccc(C)c(C)c3)C2)cc1 (stereo not given),inactive: 7.4%
18,C#CC(C)(CC)NC(=O)c1cc2c(n(-c3ccc(Cl)cc3)c1=O)CC(C)(C)CC2=O (stereo not given),inactive: 1.35%
19,CCN(CC)c1ccc(NC(=O)c2cc(S(=O)(=O)N3CCc4ccccc43)cn2C)c(C)c1,inactive: 11.7%
20,Cc1ccccc1OCC(=O)N(Cc1ccc(N(C)C)cc1)CC1CCCO1 (stereo not given),inactive: -2.63%
21,OCc1nc2ccccc2n1Cc1c(F)cccc1Cl,inactive: 0.779%
22,Cn1cc(-c2cc3n(n2)CCC(=O)N3CC(=O)O)c2ccccc21,inactive: 4.8%
23,Cc1cccc(CNC(=O)CCCN2C(=O)CCn3nc(-c4cn(C)c5ccccc45)cc32)c1,inactive: -14%
